# Laboratory results from ChEMBL document CHEMBL4888484, “Replenishing the malaria drug discovery pipeline: Screening and hit evaluation of the MMV Hit Generation Library 1 (HGL1) against asexual blood stage Plasmodium falciparum ,using a nano luciferase reporter read-out” (2022).
# In all, about 150,000 compounds went through this assay and about 540 (0.36%) showed an effect of 50% or more. Some of the results follow.
# Tested on: Plasmodium falciparum
# Assay: Primary screen in NF54 nanoGlo assay, in single point, at 2uM, 72h; a lower Z score goes with more inhibition
# Type: functional, Erythrocyte
# Conditions: timepoint 72 hour
SMILES,% Inhibition,Z score
COc1ccccc1-c1cc(C(F)(F)F)c2c(C3CC3)nn(CC(=O)O)c2n1,-44%,5.15
C#CCCOC(=O)[C@H](C)NC(=O)C1CCOCC1,-8%,1.6
Cc1c(N2CCC(C(=O)N3CCCC3)CC2)c(=O)n(C)c(=O)n1-c1ccccc1,-12%,2.26
Cc1noc([C@H]2OCC[C@H]2NC(=O)[C@H](C)Oc2cnc3ccccc3c2)n1,-13%,1.46
CCC(OC1CCCC(C)C1)C(=O)N(C)CC1CCN(C)C1 (stereo unspecified),-6%,0.63
COc1cc(C)ccc1-c1c(-c2ccccc2)ncn1Cc1cc(C)on1,-17%,1.61
Cc1ccnc(CNC(=O)C[C@H]2CC2(F)F)c1,-19%,1.73
Cc1cc(C)cc(NC(=O)C2[C@H]3C=C[C@@]4(O3)C(C(=O)NC3CCCCC3)N(CCN3CCOCC3)C(=O)[C@@H]24)c1 (stereo partly specified),-6%,0.9
CNc1ncccc1C(=O)NCC1(S(C)(=O)=O)CCCC1,6%,-0.72
CCc1nccn1CCC(=O)Nc1ccc(N2C(=O)CC[C@@H]2C)cc1,-10%,1.02
Cc1ccc(S(=O)(=O)Nc2ccc(CN3CCC[C@H](C)C3)cc2)o1,-7%,0.72
O=C(NC1CCCOc2cc(F)ccc21)NC1CCCc2occc21 (stereo unspecified),-4%,0.49
CCc1ncnc(NC[C@H]2CCNCC2(F)F)c1F,-13%,2.14
CCN(C(=O)CCN1CCC[C@H](C(C)(C)O)C1)c1ccccc1C,8%,-1.06
Cc1n[nH]c(C)c1S(=O)(=O)N(C)C1CCNCC1,-13%,1.71
c1cc(OCCO[C@@H]2CCCCO2)cc(-n2cncn2)c1,-10%,1.3
O=C(NCC#C[C@@H]1CCCCO1)c1cccn(C2CC2)c1=O,1%,-0.07
COc1cc(NC(=O)CN(C)C2CCCC2)cc(OC)c1OC,-11%,1.24
Cc1ccc(S(=O)(=O)N(c2sc3c(c2C#N)CCCC3)S(=O)(=O)c2ccc(C)cc2)cc1,13%,-1.62
Cc1cccc(-c2noc(-c3ccc4ccccc4c3)n2)c1,-15%,2.66
COc1ccc2c(c1)CCCN(C(=O)c1nccc3occc13)C2,2%,-0.32

SMILES,% Inhibition,Z score
O=C(c1ccsc1)N1CC2(C[C@H](N3CCOCC3)CO2)C1,-15%,2.38
CC(C)(C)c1ccc(OCc2nc([C@@H]3C[C@@H](O)CN3)n(CC(=O)O)n2)cc1,-4%,0.61
O=C(Nc1ccc2c(c1)OCCO2)c1ccc(-c2noc(C3CCCC3)n2)cc1,-18%,3.05
CCCn1c(=O)sc2cc(NS(=O)(=O)c3ccc(OC)cc3)ccc21,-11%,1.48
CC1(C)CN(C(=O)Nc2ccnc(Oc3ccc(F)cc3F)c2)C[C@@H]1O,-5%,0.64
Cn1c(=O)[nH]cc(C(=O)N2CC[C@@]23CCCN(C(=O)OC(C)(C)C)C3)c1=O,-5%,0.55
CCCCS(=O)(=O)Nc1ccc(NS(=O)(=O)CCCC)c(Cl)c1,5%,-0.66
CC(=O)N[C@H]1CCN(C(=O)NCC(C)(C)c2ccc(C)cc2C)C1,28%,-3.12
Cc1ccc(C)n1-c1ncc(Br)cn1,-10%,1.44
CC[C@@](C)(C#N)NC(=O)c1cccc(C#N)c1,-2%,0.32
CCOc1ccc([C@@H]2C[C@H](c3cccc(Br)c3)n3nnnc3N2)cc1Cl,-2%,0.25
CCOc1cc(C(=O)N(C)c2ccc(N(C)C)cc2)ccn1,-4%,0.62
CN1CCN(C(=O)CCCCc2c[nH]nn2)C[C@@]12CCOC2,-14%,2.26
CN(C)S(=O)(=O)c1ccc2nc(NC(=O)c3cccc4ccccc34)sc2c1,-3%,0.3
Cc1c(NC(=O)c2ccc(-c3ccccc3)o2)cccc1-c1nc2ncccc2o1,-9%,1.04
CC1CC2CCCCC2N1C(=O)NCCCCN1CCOCC1 (stereo unspecified),-7%,0.95
O=C(c1cc(-c2ccccc2)[nH]n1)N1CCn2c(nnc2C(F)(F)F)C1,-6%,0.88
Cc1cc(C(=O)N(Cc2ccccn2)c2ccc(Cl)cc2)c2c(C)noc2n1,-30%,3.48
Cc1cccc(Cn2cnc(NC(=O)c3cc(C)nc4c3cnn4C)n2)c1,30%,-3.44
OCCN(Cc1ccccn1)C1CCCCC1,-11%,1.48
O=S(=O)(c1cccs1)N1CCN(c2cnn3c(C4CC4)nnc3c2)CC1,-2%,0.29

SMILES,% Inhibition,Z score
CC1(O)CCN(C(=O)NC2CCC(Oc3ncccc3Cl)CC2)CC1 (stereo unspecified),-15%,1.47
Cc1ccc(-c2sc(NC(=O)c3ccncc3)nc2-c2ccccc2)cc1C,-2%,0.26
COc1ccc(CCC(=O)N2CCC3C(CCCN3C)C2)cc1F (stereo unspecified),7%,-1.43
O[C@H]1CNCC[C@@H]1Nc1cc(-c2ccccc2)nc2ccccc12,35%,-8.29
C[C@@H](C(=O)NCCCc1nccs1)N1CCN(C)CC1,-1%,0.17
CCN(CCCN1CCCC1)S(=O)(=O)c1cnccc1C,-4%,0.51
CCN1CCN(C(=O)c2cccc(Nc3c(Oc4cccc(C)c4)cnn(-c4cccc(Cl)c4)c3=O)c2)CC1,-13%,2.15
CS(=O)(=O)NC(=O)[C@H]1C[C@@H]1C1CCC1,-13%,2.27
Cc1nc([C@@H](c2ccc(F)cc2)C(C#N)C#N)c(O)[nH]1,-2%,0.28
O=C(O)[C@H]1CCN(C(=O)Cn2c(COc3ccccc3)nc3ccccc32)C1,-10%,0.93
COCc1cn([C@H]2CO[C@H]3[C@@H]2OC[C@@H]3NC(=O)c2ccc(OC)cc2)nn1,-1%,0.17
Cc1nnc(CN(C)Cc2c[nH]nc2-c2ccc(-c3ccccc3)cc2)o1,5%,-0.55
COCCn1c(C)cc(=O)c(C(=O)N2CCN(c3cc(C)ccc3C)CC2)c1CC1CCCC1,17%,-2.12
CC1CC(N2C(=O)NC3(Cc4ccccc4C3)C2=O)C1 (stereo unspecified),-7%,0.74
Fc1cnc2[nH]c(-c3cccnc3)nc2c1,4%,-0.55
COC(=O)CN1CCCN(Cc2cccc3[nH]ccc23)CC1,-5%,0.49
COc1cc(CN2CC(=O)N(C)C3(CCOCC3)C2)ccc1F,-4%,0.79
CCn1ccc2ccc(CN3CCC[C@@](O)(CN(C)C)C3)cc21,10%,-1.84
CCCCS(=O)(=O)NCc1nc(-c2ccco2)n[nH]1,0%,0.09
Clc1ccccc1-c1cc(CN2CCC[C@@H]2Cn2cncn2)no1,-16%,1.7
CC[C@H]1COCCN1CCC(=O)NCc1ccc(F)cc1,-4%,0.76

SMILES,% Inhibition,Z score
O=C(NC[C@H]1CCCO1)c1cccnc1Oc1cccc(NS(=O)(=O)c2ccc(Cl)s2)c1,0%,-0.07
Cc1ccc(CNC(=O)c2cccc(-c3nc4cccnc4n3C)c2)cc1,-8%,1.1
CCOC(=O)CCNC(=O)Nc1ccccn1,-7%,1.06
CC(C)C[C@@H](CN(C)C)NC(=O)c1c[nH]nc1-c1ccoc1,-7%,1.25
Cc1c(C(=O)NC2CCCCC2)sc2ncnc(N(C)c3ccccc3)c12,-15%,2.5
CC(C)C[C@@H](NS(=O)(=O)c1cnc(-c2ccccc2)nc1)C(=O)O,-12%,1.33
CN(Cc1ccccc1)C(=O)[C@@H]1Cc2[nH]cnc2CN1Cc1ccc(C(=O)O)cc1,6%,-0.7
Cn1cc(S(=O)(=O)NCCCc2cc(N)n(-c3ccccc3)n2)cc1C(N)=O,0%,0.06
CCN=C(NCCOC1CCCCCC1)NCc1nc(C2CC2)no1,-15%,2.17
CC(C)c1nnc(CNC(C)(C)c2ccc(F)cc2Cl)o1,6%,-0.81
Cc1cc(N2CC(Cn3nc(C(C)(C)C)ccc3=O)C2)n2nc(C)cc2n1,-9%,1.31
CNC(=O)Cn1c(Cc2ccccc2)nn(-c2ccc(Cl)cc2)c1=O,-3%,0.35
Cn1ncc2c(N3CCN4CCC[C@H]4C3)nc(CCc3ccccc3)nc21,-8%,1.48
O=C1OCC2(CCN(Cc3cccc4cc[nH]c34)CC2)O1,7%,-0.91
O=C(NC1CCC(F)(F)CC1)[C@@H]1CCCO1,-24%,3.04
CS(=O)(=O)c1ccc(-c2nnc(NC(=O)c3ccc(-c4ccccc4)cc3)o2)cc1,20%,-2.59
O=C(C1CC2C=CC1C2)N1CCN(Cc2ccncc2)CC1 (stereo unspecified),-3%,0.48
COc1ccc(Cl)cc1NC(=O)N1CCC2(CC1)CN(C)C[C@@H]2c1nnc(C)o1,-2%,0.28
COc1ccccc1Cc1nc([C@H]2CCOC2)n(CC(F)(F)F)n1,-3%,0.35
C[C@@H](NC(=O)c1ncoc1C1CC1)C1CCCC1,-8%,0.97
